“And” between values parts separate entries of the source, which are not always exact repeats. Equal values may be shown once. In all, about 350,000 compounds went through this assay and about 31,000 (8.9%) were called active. Inconclusive means that the source gave no clear call. Such entries were picked first, then a sample of the others. Calls follow the shape of the dose curve; as a rule, active = well fitted inhibition curve with a large enough effect; inconclusive = small, poorly fitted or top-dose-only effect; inactive = no such curve, though single readings can be large or run the other way. Potencies beside an inconclusive call are fits to weak or partial responses and may not hold up.
Biological target: Histone-lysine N-methyltransferase EHMT2 (Homo sapiens) (UniProt Q96KQ7)
Sequence of UniProt Q96KQ7 (Q96KQ7 whole entry, looked up): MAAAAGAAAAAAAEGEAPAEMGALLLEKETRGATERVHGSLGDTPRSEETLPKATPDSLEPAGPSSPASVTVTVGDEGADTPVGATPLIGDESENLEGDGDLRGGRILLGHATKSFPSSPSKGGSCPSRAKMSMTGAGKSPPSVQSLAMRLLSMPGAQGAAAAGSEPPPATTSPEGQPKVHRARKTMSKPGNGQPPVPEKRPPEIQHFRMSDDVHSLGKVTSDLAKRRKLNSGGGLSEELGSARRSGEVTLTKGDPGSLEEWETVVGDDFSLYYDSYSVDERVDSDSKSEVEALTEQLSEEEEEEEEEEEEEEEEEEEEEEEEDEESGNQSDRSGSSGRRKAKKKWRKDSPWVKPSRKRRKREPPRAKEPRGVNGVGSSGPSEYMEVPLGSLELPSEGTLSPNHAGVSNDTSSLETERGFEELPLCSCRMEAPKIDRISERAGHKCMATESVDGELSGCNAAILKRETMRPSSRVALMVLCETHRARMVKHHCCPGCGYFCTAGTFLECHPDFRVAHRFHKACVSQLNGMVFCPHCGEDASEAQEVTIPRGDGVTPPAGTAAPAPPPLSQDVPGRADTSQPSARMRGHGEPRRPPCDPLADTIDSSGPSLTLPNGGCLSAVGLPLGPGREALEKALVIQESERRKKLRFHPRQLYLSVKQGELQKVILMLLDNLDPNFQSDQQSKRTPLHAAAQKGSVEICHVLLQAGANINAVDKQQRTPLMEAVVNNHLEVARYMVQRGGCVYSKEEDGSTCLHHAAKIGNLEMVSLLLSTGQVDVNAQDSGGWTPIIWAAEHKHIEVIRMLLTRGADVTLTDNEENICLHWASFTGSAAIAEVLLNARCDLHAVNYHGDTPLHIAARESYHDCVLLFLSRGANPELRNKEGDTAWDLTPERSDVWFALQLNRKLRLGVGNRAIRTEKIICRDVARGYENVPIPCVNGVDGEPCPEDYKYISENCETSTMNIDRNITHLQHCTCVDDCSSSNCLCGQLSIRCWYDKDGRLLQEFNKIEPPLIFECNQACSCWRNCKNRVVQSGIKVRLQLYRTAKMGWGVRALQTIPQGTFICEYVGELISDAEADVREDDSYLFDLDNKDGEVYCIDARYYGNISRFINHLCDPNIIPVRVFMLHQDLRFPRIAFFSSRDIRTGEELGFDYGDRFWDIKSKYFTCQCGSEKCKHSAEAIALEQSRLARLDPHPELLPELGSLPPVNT
Assay: qHTS Assay for Inhibitors of Histone Lysine Methyltransferase G9a; also: nearly all actives have a fitted effect of over 75% in size
Conditions: G9a H3K9 monomethylation, AlphaScreen, 2 h; activity, negative = inhibition: at 59 µM (top of the series) unless noted
In short: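 Signal arises when biotinylated H3K9 peptide, once monomethylated, bridges streptavidin donor and antibody-captured acceptor beads. Enzyme at 20 nM was preincubated 15 min with test compounds; peptide 500 nM and SAM 20 uM then reacted for 2 h.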
% is scaled to controls: 0 for no effect and ±100 for the full control effect; potency is read from the fitted curve at half-maximal effect; tags tell the direction and shape of the fitted curve.

Row | SMILES | Potency | activity, negative = inhibition
1 | COc1ccc(OC)c(C2C3=C(N=C4SCC(=O)N42)c2ccccc2CC3)c1 (configuration not stated) | inconclusive: 28.2 µM [inhibitor, single point] | 
2 | COc1cc(C(=O)NS(=O)(=O)c2ccccc2C)ccc1Cc1cn(C)c2ccc(NC(=O)OC3CCCC3)cc12 | inconclusive: 20 µM [inhibitor, single point] and inconclusive: 17.8 µM [inhibitor, single point] | 
3 | CN(C)CCCNS(=O)(=O)c1ccc(-n2nnc3ccccc32)c([N+](=O)[O-])c1 | inconclusive: 89.1 µM [inhibitor, single point] | 
4 | O=C(O)CNCC1COc2ccccc2O1 (configuration not stated) | active: 17.8 µM | 
5 | CC1Cc2cc(/C(O)=C3/C(=O)C(=O)N(CCN4CCOCC4)C3c3ccc(C(C)C)cc3)ccc2O1 (configuration not stated) |  | inconclusive: -56.2% [inhibitor]
6 | CC(C)N=C1NN=C(c2ccc(F)cc2)CS1 | inconclusive: 89.1 µM [inhibitor, single point] | 
7 | CC(C)(C)c1ccc(-n2ncc3c2CCCC3NC(=O)CN2CCCC2=O)cc1 (configuration not stated) | inactive | 
8 | O=C(CSc1nnc(SCC(=O)NCc2ccc3c(c2)OCO3)s1)NCc1ccc2c(c1)OCO2 | inconclusive: 39.8 µM [inhibitor, partial curve, poor fit] | 
9 | COc1ccc(C(=O)Nc2cc(Cl)ccc2N2CCOCC2)cc1S(=O)(=O)N1CCOCC1 | inconclusive: 89.1 µM [inhibitor, partial curve, poor fit] | 
10 | CCCCn1c(N)c(N(CCOC)C(=O)c2cc(-c3ccc(OC)c(OC)c3)nc3ccccc23)c(=O)[nH]c1=O | active: 11.2 µM | 
11 | Cn1c(NCCO)nc2c1c(=O)n(Cc1cccc(F)c1)c(=O)n2C | inactive | 
12 | COC(=O)CSC1=C(C#N)C(c2ccc(C(C)C)cc2)CC(=O)N1 (configuration not stated) | inconclusive: 89.1 µM [inhibitor, single point] | 
13 | N#Cc1c(N)nc(N)nc1Nc1ccc(Br)cc1 | inconclusive: 79.4 µM [inhibitor, partial curve, poor fit] | 
14 | O=C(O)c1ccccc1NS(=O)(=O)c1cccc2cccnc12 |  | inconclusive: -98.7% [inhibitor]
15 | Cc1ccc(N2N=C(c3ccc(F)cc3)CC2c2ccco2)cc1 (configuration not stated) | inconclusive: 35.5 µM [inhibitor, partial curve, poor fit] | 
16 | Cc1ccc(C(=O)N2CCN=C2SCc2ccc([N+](=O)[O-])cc2)cc1C | inconclusive: 31.6 µM [inhibitor, full curve] | 
17 | Cc1nn(C(=O)c2ccc(Br)cc2)c(C)c1S(=O)(=O)N1CCOCC1 | inconclusive: 31.6 µM [inhibitor, single point] | 

Source: PubChem BioAssay AID504332 (National Center for Advancing Translational Sciences (NCATS), 2011)
